According to the supplement of paper PMC10338343:
± gives the standard deviation. The entries are a selection whose mix differs from that of the whole data set.

System: MIWI (PIWIL1) piRISC loaded with L1MC piRNA (30 nt)
Experiment: pre-steady-state target cleavage rate (min^-1); MIWI and MILI are mouse PIWI proteins and EfPiwi is from a freshwater sponge; tags in brackets are library labels; higher = faster piRNA-guided slicing of the target
Settings: guide: L1MC piRNA 5'p-UAACUAAAUACUAUGCAAGCUGUAGGUCCU
Outline: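 Three pooled Cleave-'n-Seq trials supplied the data, with k3 capped at 0.0001 min^-1. In each, […] transcribed, DNA-blocked target RNA library and 1 nM active affinity-purified piRISC with one synthetic guide reacted in HEPES–potassium acetate buffer at 33 °C for 0–8 or 0–960 min, with or without 500 nM GTSF1 partner protein. Uncleaved targets were sequenced and normalised to depth and to weakly complementary targets. A burst-and-steady-state fit provided the pre-steady-state cleavage rate.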

[1] = auxiliary factor: 500 nM mouse GTSF1
[2] = auxiliary factor: none (no GTSF1)
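Further: 1 nM active piRISC with 0.1 nM target library at 33 °C single turnover.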

| Sequence | pre-steady-state target cleavage rate [1] | pre-steady-state target cleavage rate [2] |
| --- | --- | --- |
| UCGACCUACAGCUUGCAUUGUAUUUUCAAA | 0.128 ± 0.024 |  |
| UGGACCUACAGCUACGAUAGUAUUUAGUAA | 0.0193 ± 0.0048 |  |
| UCCUCCUACAGCUACCAUAGUAUUUAGUAA | 0.182 ± 0.029 |  |
| UCCUCCUACAGCUUGCUAGUAUUUAGUUA | 0.0615 ± 0.017 |  |
| UCCUCCUACACGUUGCAUAGUAUUUUCAAA | 0.188 ± 0.031 |  |
| UCCACCUACAGCUUGCUAAGUAUUUAGUAA | 0.0952 ± 0.019 |  |
| UCCACCUACAGCUUGCAUAGUAAAUACAAA | 0.155 ± 0.037 |  |
| UCCUGGAUGUCGAACGUAUCAAUUAAGUUA |  | < 0.0001 |
| UCCUGGAUGUCGAACGAUAGUAUUUAUUUA |  | < 0.0001 |
| UCCUGGAUGUCGAACGUAUCUAUUUGGUUA |  | < 0.0001 |
| UCCUGGAACAGCUUCCAUACUAUUUAGUUA | 0.0129 ± 0.006 |  |
| UCGACCUACAGGUUCCAUAGUAUUUAGUUA | 0.0899 ± 0.027 |  |
| UCCUGGAUCAGCUUGCAUAGUAAAAAGUUA | 0.0272 ± 0.0069 |  |
| UCCUGGAUCAGCUUGCAUAGAAUUUACAAA | 0.0559 ± 0.014 |  |
| UCCUGGAUGUCGAAGCAUAGUAUUUAAGUUA | 0.0123 ± 0.0033 |  |
| UCCUGGAUGAGCUUGCUUUGUAUUUAGUUA | 0.00719 ± 0.0033 |  |
| UCCACCUACAGCUUGCAUAGUAAAUAGUAA | 0.363 ± 0.063 |  |
| UGGACCUACAGCGUGCAUAGUAUUUAGUUA |  | 0.0647 ± 0.013 |
| UCCUGGAUGUCCAUGCAUAGUAUUUAGUUA | 0.0122 ± 0.0055 |  |
| UCCUGGAUCAGCUUGCAUUGUAUUUACAAA | 0.0335 ± 0.011 |  |
| AGGACCUACAGCUUGCUAAGUAUUUAGUAA | 0.23 ± 0.044 |  |
| UCCUGGAUGUCGAACCUAAGUAUUUAGUUA | < 0.0001 |  |

| Sequence | pre-steady-state target cleavage rate [1] | pre-steady-state target cleavage rate [2] |
| --- | --- | --- |
| UGGACCCUACAGCUUGCAUAGUAUUUAGUUA |  | 0.0808 ± 0.015 |
| UCCACCUACAGCUUGCAUAGAAUUUACAAA | 0.308 ± 0.054 |  |
| UCCACCUACAGCUUGCAUAGUAUUAAGAAA | 0.351 ± 0.054 |  |
| UCCUGGUACAGCUUGCAUAGAUAUUUAGUUA | 0.00536 ± 0.0054 |  |
| UCCUGCUACAGCUUCCAUAGUAUAUAGUUA | 0.112 ± 0.037 |  |
| UCCUGGAACACCUUGCAUAGUAUUUUCAAA | 0.101 ± 0.025 |  |
| AGGACCUACAGCUUGCAAUCUAUUUAGUUA | 0.173 ± 0.018 |  |
| UCCUCCUACAGGAUGCAUAGUAUUUAGAAA | 0.248 ± 0.036 |  |
| UGGACCUACAGCUUGCUAAGUAUUUUCAAA | 0.00364 ± 0.0036 |  |
| AGGACCUACAGCUUGGUUAGUAUUUUCAAA | 0.0563 ± 0.019 |  |
| UCCUGGAACAGCUUCCAUAGUAAUUAGUUA | 0.0147 ± 0.0069 |  |
| UCCUGGAUGUCGAACGAUAGUAUUUUAGUUA |  | < 0.0001 |
| UCCUGGAUGUCGAACCAUAGUAUUUAGGUA | < 0.0001 |  |
| UCCUGCUACAGCUUGCAAUCUAUUUAGUAA | 0.179 ± 0.04 |  |
| UCGACCUACAGCUUCGAUAGUAUUUUCAAA | 0.01 ± 0.0053 |  |
| UCCUCCUACAGCUUGCUUAGUAUUUACAAA | 0.218 ± 0.035 |  |
| UCCUGCUACAGCAAGCAUAGUAUUUUCAAA | 0.182 ± 0.046 |  |
| UCCUGGAUGUGCUUGCAUAGAAUUAAGUUA | 0.00481 ± 0.0037 |  |
| UGGCCUACAGCUUGCAUAGUAUUUAGUUA |  | 0.0761 ± 0.014 |
| UCCUGGAUGUCGAACGUAAGUAUUUGGUUA |  | < 0.0001 |
| UCCUGGAUGUCGAACCAUAGUAUUUAGUUC [g2:g15:cont:t1C] |  | < 0.0001 |
| UCCUGGAUGUCGAACGAAAGUAUUUACUUA |  | < 0.0001 |

| Sequence | pre-steady-state target cleavage rate [1] | pre-steady-state target cleavage rate [2] |
| --- | --- | --- |
| UCCUGGAUGUGGUUGCAUAGUUUUUAGUUA |  | 0.00459 ± 0.0039 |
| UCGACCUACAGCUCGCAUAGUAUUUAGUUA |  | 0.0682 ± 0.013 |
| UCCUGGAUGUCGAACCAUAGUAAAAUCAAA [g9:g15:cont:t1A] |  | < 0.0001 |
| UCCUGGAUGUCGAACGAUAGAUAUUAGUUA |  | < 0.0001 |
| ACGAGCUACAGCUUGCAUAGUAUUUAGUUA |  | 0.094 ± 0.016 |
| UCCUGGAUGUCGAACGUAAGUAAUAAGUUA |  | < 0.0001 |
| UCCUGGAUGUCGAACGAAGUAUUUAGUUA |  | < 0.0001 |
| UCCUGGAUGUCGAACGUAAGUUAUUAGUUA |  | < 0.0001 |
| UCCUGGAUGUCGAACGUAAGUAUAUAGUAA |  | < 0.0001 |
| UCCUGGAUGUCGAACGAUAGUAAUUAGAUA |  | < 0.0001 |
| UCCUGGAUGUCGAACGUAUGUAUUUAUUA |  | < 0.0001 |
| UGGACCUACAGCUUGCAUAUUAUUUAGUUA |  | 0.0442 ± 0.0088 |
| UCCUGGAUGUCGAACGUUAGUAUUUAUUUA |  | < 0.0001 |
| UCCUGGAUGUCGAACGUAAGUAUUUAGAUA |  | < 0.0001 |
| UCCUCCUACCGCUUGCAUAGUAUUUAGUUA |  | 0.0565 ± 0.0099 |
| UCCUGGAUGUGCAUGCAUACUAUUUAGUUA | 0.0114 ± 0.0043 |  |
| UCCUGCUACAGCUUGCAUAGUAAUAAGUUA | 0.364 ± 0.037 |  |
| UCCUGGAUGAGCUUGCAUAGUAUAUACAAA | 0.00918 ± 0.0054 |  |
| UCCUGCUACAGGAUGCAUAGUAUUUACAAA | 0.0324 ± 0.0099 |  |
| UCCUGGUACAGCUUGCAAUCUAUUUAGAAA | 0.00478 ± 0.0045 |  |
| UCCUCCUACAGCUUGCAUAGUAUAAUCAAA | 0.329 ± 0.048 |  |
